Reference: paper PMC4336329 (PLoS ONE, 2015)
Among all 310,000 compounds or so, about 14,000 (4.5%) showed an effect of 50% or more. Effects have a minus sign here. The list shows a part of the results.

target: human ether-à-go-go-related gene (hERG) potassium channel (human, UniProt Q12809); test: primary screen, population patch clamp on CHO cells stably expressing hERG
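Note: peak tail current of the secondary pulse compared with the same well before compound.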

Sequence of human ether-à-go-go-related gene (hERG) potassium channel (Q12809 whole entry, looked up): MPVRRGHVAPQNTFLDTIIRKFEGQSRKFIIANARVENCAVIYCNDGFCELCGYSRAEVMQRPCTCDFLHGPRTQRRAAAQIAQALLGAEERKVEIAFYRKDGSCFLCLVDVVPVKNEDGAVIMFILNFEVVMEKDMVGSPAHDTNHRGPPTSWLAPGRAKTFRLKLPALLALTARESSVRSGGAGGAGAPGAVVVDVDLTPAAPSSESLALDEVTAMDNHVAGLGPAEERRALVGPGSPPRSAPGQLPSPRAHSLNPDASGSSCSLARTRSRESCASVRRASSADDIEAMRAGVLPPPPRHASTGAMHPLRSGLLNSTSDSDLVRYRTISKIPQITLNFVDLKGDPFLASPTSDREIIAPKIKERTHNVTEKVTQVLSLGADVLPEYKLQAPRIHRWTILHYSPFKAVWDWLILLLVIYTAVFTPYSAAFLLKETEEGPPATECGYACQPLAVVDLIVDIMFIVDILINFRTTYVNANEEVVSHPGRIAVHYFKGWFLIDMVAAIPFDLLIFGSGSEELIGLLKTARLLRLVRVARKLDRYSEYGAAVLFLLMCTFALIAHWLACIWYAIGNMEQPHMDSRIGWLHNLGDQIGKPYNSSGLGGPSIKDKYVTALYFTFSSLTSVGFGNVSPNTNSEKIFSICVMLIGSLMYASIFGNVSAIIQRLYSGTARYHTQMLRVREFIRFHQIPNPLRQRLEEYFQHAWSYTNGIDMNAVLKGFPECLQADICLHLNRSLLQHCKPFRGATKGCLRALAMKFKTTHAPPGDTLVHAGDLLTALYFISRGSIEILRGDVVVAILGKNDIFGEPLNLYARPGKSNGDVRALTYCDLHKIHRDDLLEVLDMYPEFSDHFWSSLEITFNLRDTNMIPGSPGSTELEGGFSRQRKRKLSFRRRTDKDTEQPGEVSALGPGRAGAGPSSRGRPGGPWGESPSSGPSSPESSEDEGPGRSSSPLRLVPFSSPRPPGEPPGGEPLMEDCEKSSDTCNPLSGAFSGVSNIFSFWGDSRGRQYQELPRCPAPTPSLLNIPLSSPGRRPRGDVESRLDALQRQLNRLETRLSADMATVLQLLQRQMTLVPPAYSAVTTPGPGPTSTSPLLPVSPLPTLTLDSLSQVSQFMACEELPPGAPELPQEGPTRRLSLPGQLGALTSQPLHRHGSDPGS

`CCOc1ccc(NC(=O)CN(C)C(=O)CSCc2cccc(C)c2)cc1OCC` was tested. Which “hERG current change (%, negative = inhibition) at 10uM” value did it give?
Its value is 2.86%.

Which “hERG current change (%, negative = inhibition) at 10uM” value does the source give for `Cc1cc(C)c(NC(=O)CCCCCNC2CCCCC2)c(C)c1.Cl` here?
The value was 2.66%.

`Cc1cc(NC(=O)CSCC(=O)OCC(=O)Nc2cc(C)c(C)cc2[N+](=O)[O-])no1` was tested. Which “hERG current change (%, negative = inhibition) at 10uM” value did it give?
Its value is 5.52%.

Which “hERG current change (%, negative = inhibition) at 10uM” value does the source give for `Cc1cc(NC(=O)C(C)(C)C)no1` here?
Its value is 4.01%.

How did the “hERG current change (%, negative = inhibition) at 10uM” value turn out when `COc1ccc(OC)c(-n2c(CNC3CCN(Cc4ccccc4)CC3)nc3ccccc3c2=O)c1` was run?
The value was -76.6%.

How did the “hERG current change (%, negative = inhibition) at 10uM” value turn out when `COc1ccc(NC(=O)c2ccc(F)c(F)c2)c2ccccc12` was run?
The value was 25.9%.

Which “hERG current change (%, negative = inhibition) at 10uM” value does the source give for `CC12CN3CCN(CC(C3)/C1=N\N=C1/C3CN4CCN(C3)CC1(C)C4)C2` here?
Its value is -3.37%.

`O=C(N/N=C/C=C\c1ccccc1[N+](=O)[O-])c1ccccn1` was tested. Which “hERG current change (%, negative = inhibition) at 10uM” value did it give?
The value was -18.1%.

Which “hERG current change (%, negative = inhibition) at 10uM” value does the source give for `CC1=NN(C(N)=S)C(=O)C1N=Nc1ccccc1Cl` (stereo not drawn) here?
Its value is 20.2%.

With `CCNc1cc(=O)n(C)c(=O)n1C` as the molecule, how does the “hERG current change (%, negative = inhibition) at 10uM” value read?
The value was -0.391%.

With `CCO[C@H]1OC(C(=O)Nc2ccccc2)=C[C@@H](C)[C@@H]1CCCO` as the molecule, how does the “hERG current change (%, negative = inhibition) at 10uM” value read?
The value was 14.1%.

How did the “hERG current change (%, negative = inhibition) at 10uM” value turn out when `CN(C)S(=O)(=O)c1ccc(F)c(C(=O)Nc2ccccc2C(=O)NC2CC2)c1` was run?
Its value is -38.7%.

How did the “hERG current change (%, negative = inhibition) at 10uM” value turn out when `Cc1ccc(C(=O)NCc2nc3ccccc3[nH]2)o1` was run?
Its value is 9.61%.

How did the “hERG current change (%, negative = inhibition) at 10uM” value turn out when `CC(=O)c1cc2c(cc1NC(=O)CN1CCN(c3ccc(F)cc3)CC1)OCO2` was run?
Its value is 15.2%.

For `COC(=O)N1C(=O)[C@](Cc2ccccc2)(c2ccccc2)N1C(=O)OC`, which “hERG current change (%, negative = inhibition) at 10uM” value is on record?
The value was 10.8%.

Which “hERG current change (%, negative = inhibition) at 10uM” value does the source give for `CC(/C=N/NC(=O)CSc1nnc(SCc2ccccc2)s1)=C\c1ccco1` here?
The value was -13%.

`O=C(O)CCC(=O)Nc1ccc(Cc2ccc(NC(=O)CCC(=O)O)cc2)cc1` was tested. Which “hERG current change (%, negative = inhibition) at 10uM” value did it give?
The value was 11.4%.

With `CC(C)(CO)N1CCN(C(=S)Nc2ccccc2)CC1` as the molecule, how does the “hERG current change (%, negative = inhibition) at 10uM” value read?
The value was 5.01%.

Which “hERG current change (%, negative = inhibition) at 10uM” value does the source give for `COC(=O)C1C(O)=C(C(C)=Nc2cccc3ccccc23)C(=O)CC1(C)C` (stereo not drawn) here?
Its value is 4.51%.

For `Cc1ccnc(NC(=O)CCC(=O)N(CC(=O)NC2CCCCC2)Cc2cccs2)c1`, which “hERG current change (%, negative = inhibition) at 10uM” value is on record?
Its value is -11.8%.

Which “hERG current change (%, negative = inhibition) at 10uM” value does the source give for `Cc1ccc2[nH]c3c(c2c1)CN(C(=O)CN1CCN(Cc2ccc4c(c2)OCO4)CC1)CC3` here?
Its value is -54.8%.

`O=C1C=C(O)CC(c2ccc(Cl)cc2)C1` (stereo not drawn) was tested. Which “hERG current change (%, negative = inhibition) at 10uM” value did it give?
The value was 10.8%.

With `COc1cccc(/C=C/c2nc(C#N)c(NCC(C)C)o2)c1` as the molecule, how does the “hERG current change (%, negative = inhibition) at 10uM” value read?
Its value is 9.83%.

For `Cc1cc(NC(=O)C2CC(c3ccccc3Cl)=NO2)no1` (stereo not drawn), which “hERG current change (%, negative = inhibition) at 10uM” value is on record?
The value was 9.72%.

For `COc1cccc(C(=O)NCCN2CCOCC2)c1`, which “hERG current change (%, negative = inhibition) at 10uM” value is on record?
The value was 7.25%.

With `CCOc1ccc(S(=O)(=O)Nc2cc(S(=O)(=O)N(CC)CC)ccc2N2CCCC2)cc1` as the molecule, how does the “hERG current change (%, negative = inhibition) at 10uM” value read?
The value was 10.1%.

With `CCCCN(C(=O)C1CC(=O)N(CCc2ccc(OC)c(OC)c2)C1)c1c(N)n(CCCC)c(=O)[nH]c1=O` (stereo not drawn) as the molecule, how does the “hERG current change (%, negative = inhibition) at 10uM” value read?
The value was 6.61%.

`COc1ccc(Nc2nc(NCc3ccco3)nc(N/N=C/c3ccccc3F)n2)cc1` was tested. Which “hERG current change (%, negative = inhibition) at 10uM” value did it give?
Its value is -12.3%.

Which “hERG current change (%, negative = inhibition) at 10uM” value does the source give for `O=C(N/N=C/c1cc(Br)c(O)c(Br)c1)c1cccnc1` here?
The value was 10.8%.

`COc1cc(/C=N/n2c(C3CCCCC3)n[nH]c2=S)cc(Br)c1O` was tested. Which “hERG current change (%, negative = inhibition) at 10uM” value did it give?
Its value is 9.84%.

Which “hERG current change (%, negative = inhibition) at 10uM” value does the source give for `O=C(COC(=O)CCC(=O)c1ccc(F)cc1)NCc1ccco1` here?
The value was 0.0638%.

`CCCC(=NC(C)CC)C1=C(O)CC(c2ccccc2)CC1=O` (stereo not drawn) was tested. Which “hERG current change (%, negative = inhibition) at 10uM” value did it give?
Its value is -5.78%.

For `C=CCN1C(=O)CN=C1Nc1ccc(OC)cc1OC.Cl`, which “hERG current change (%, negative = inhibition) at 10uM” value is on record?
The value was 9.13%.

`Cc1nnc(-c2cnn(C)c2N)n1Cc1ccc2c(c1)OCO2` was tested. Which “hERG current change (%, negative = inhibition) at 10uM” value did it give?
The value was 5.96%.

For `CCc1nccn1S(=O)(=O)c1cc(Br)ccc1OC`, which “hERG current change (%, negative = inhibition) at 10uM” value is on record?
Its value is 15.8%.

Which “hERG current change (%, negative = inhibition) at 10uM” value does the source give for `CC1(C)Cc2nc3sc4c(=O)n(Cc5ccccc5)cnc4c3cc2CS1` here?
The value was -1.08%.

How did the “hERG current change (%, negative = inhibition) at 10uM” value turn out when `O=C1CN(C(=O)C2CCCC2)CCN1` was run?
The value was 27.2%.

Which “hERG current change (%, negative = inhibition) at 10uM” value does the source give for `CC(=O)Nc1ccc(S(=O)(=O)NCCc2cn3nc(C)c(C)nc3n2)cc1` here?
The value was -20.9%.

How did the “hERG current change (%, negative = inhibition) at 10uM” value turn out when `CC(C)[C@H](NC(=O)c1cccc(S(=O)(=O)N2CCOCC2)c1)C(=O)Nc1nc2ccccc2s1` was run?
Its value is -10%.

How did the “hERG current change (%, negative = inhibition) at 10uM” value turn out when `O=C(c1ccco1)N1CCN(CC(O)COc2ccc3oc4ccccc4c3c2)CC1` (stereo not drawn) was run?
Its value is -66.4%.

Which “hERG current change (%, negative = inhibition) at 10uM” value does the source give for `C=CCN(c1ccccc1)S(=O)(=O)c1ccc(Cl)c(C(=O)OCC(=O)c2[nH]c(C)c(C(C)=O)c2C)c1` here?
Its value is 5.67%.

How did the “hERG current change (%, negative = inhibition) at 10uM” value turn out when `Cc1cc(=O)n2ncnc2n1COCCO` was run?
The value was 0.381%.

`COc1cccc(C2=NOC(C(=O)Nc3ccccc3SC)C2)c1` (stereo not drawn) was tested. Which “hERG current change (%, negative = inhibition) at 10uM” value did it give?
The value was -1.99%.

With `Cc1ccc(NC(=O)CSc2nc3ccccc3c(=O)n2CC2CCCO2)cc1` (stereo not drawn) as the molecule, how does the “hERG current change (%, negative = inhibition) at 10uM” value read?
Its value is 0.693%.

Which “hERG current change (%, negative = inhibition) at 10uM” value does the source give for `O=C(N/N=C/c1cccnc1)c1cccc(S(=O)(=O)N2CCCC2)c1` here?
Its value is 15.1%.

How did the “hERG current change (%, negative = inhibition) at 10uM” value turn out when `COc1cc(/C=N/N2CCN(c3ccccc3OC)CC2)ccc1OC(C)=O` was run?
The value was 17.2%.

For `COc1cccc(-n2c(N)c(C(=O)Nc3c(C)n(C)n(-c4ccccc4)c3=O)c3nc4ccccc4nc32)c1`, which “hERG current change (%, negative = inhibition) at 10uM” value is on record?
The value was -9.9%.

Which “hERG current change (%, negative = inhibition) at 10uM” value does the source give for `Cc1cccc(C)c1NS(=O)(=O)c1ccc2c(c1)NC(=O)CO2` here?
Its value is 5.47%.

Which “hERG current change (%, negative = inhibition) at 10uM” value does the source give for `COC(=O)c1ccccc1OC(=O)c1ccc(Br)o1` here?
The value was -0.209%.

Which “hERG current change (%, negative = inhibition) at 10uM” value does the source give for `Br.Cc1csc(Nc2cccc3ccccc23)n1` here?
The value was 6.65%.

Which “hERG current change (%, negative = inhibition) at 10uM” value does the source give for `COc1cc2c(cc1CN1CCN(C(=O)c3cc(OC)c(OC)c(OC)c3)CC1)OCO2` here?
The value was 7.88%.

Which “hERG current change (%, negative = inhibition) at 10uM” value does the source give for `CSC1=N/C(=C/c2ccc(-n3cncn3)cc2)C(=O)N1` here?
The value was 6.6%.

For `Cc1cccc(NC(=O)/C=C/c2cccs2)n1`, which “hERG current change (%, negative = inhibition) at 10uM” value is on record?
The value was -8.27%.

`O=C(O)CN1C(=O)C(=O)N(Cc2ccc(Cl)c(Cl)c2)C1=O` was tested. Which “hERG current change (%, negative = inhibition) at 10uM” value did it give?
Its value is -35.6%.

For `Cc1ccc2c(c1)N(Cc1ccc([N+](=O)[O-])cc1)C=NS2(=O)=O`, which “hERG current change (%, negative = inhibition) at 10uM” value is on record?
The value was -45.9%.

How did the “hERG current change (%, negative = inhibition) at 10uM” value turn out when `CC1CCN(C(=O)CSc2n[nH]c(-c3cccs3)n2)CC1` was run?
The value was 6.37%.

`CCOC(=O)c1c(C)n(C)c2ccc(OC)c(NS(=O)(=O)CC)c12` was tested. Which “hERG current change (%, negative = inhibition) at 10uM” value did it give?
The value was -2.52%.
